Assay results taken from PubChem BioAssay (Tox21).
“And” between values parts separate entries of the source, which are not always exact repeats. Identical values can stand only once. Inconclusive results, whose numbers are uncertain, are shown with a selection of clear calls. For some of these results: A potency beside an inconclusive call is a rough fit, not a confirmed value. Some structures have more than one record in an assay (separate samples or runs), and their calls can disagree. The source made the active and inactive calls. Unless noted, the call rests on the fitted dose curve; in most records, active means well fitted curve in the direction sought with a large enough effect in the repeat runs; inconclusive means weak or mixed curves; inactive means no such curve, though single readings can be large; an effect the other way counts as inactive or inconclusive.

What was measured:
[1] = qHTS assay to identify aromatase inhibitors - cell viability counter screen (AID 743084); conditions: MCF-7 aro ERE viability, CellTiter-Fluor, 24 h; activity change, negative = cytotoxicity: at 70.3 µM (top of the series);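 further: cells stimulated with testosterone during compound exposure; potency means the concentration at half of the fitted maximal effect; nearly all actives have a fitted effect of over 55% in size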
[2] = qHTS assay to identify small molecule that activate the aryl hydrocarbon receptor (AhR) signaling pathway - cell viability counter screen (AID 743086); further: nearly all actives have a fitted effect of over 45% in size; further: potency means the concentration at half of the fitted maximal effect
Procedure, shortened: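 HepG2-AhR-luc (HG2L7.5c1) cells, 4000/well, treated 24 h at 37 C with compound; viability measured as CellTiter-Fluor fluorescence after 30 min in the same wells as the luciferase read.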

[3] = molecular target: Peroxisome proliferator-activated receptor gamma (Homo sapiens) (UniProt P37231); experiment: qHTS assay to identify small molecule agonists of the peroxisome proliferator-activated receptor gamma (PPARg) signaling pathway (AID 743094; active means well fitted activation curve with a large enough effect in the signal ratio in the repeat runs, not every such curve was filed as active; inconclusive means weak or mixed curves, or effect the other way; inactive means no such curve, though single readings can be large or run the other way; the % refers to the signal ratio; further: potency means the concentration at half of the fitted maximal effect; on activation: on the % scale 0 is the no-effect control and ±100 the full control effect); conditions: HEK293H PPARg-UAS-bla, beta-lactamase FRET ratio, 17 h; activation: at 57 µM (top of the series) unless noted
Sequence of UniProt P37231 (P37231 whole entry, looked up): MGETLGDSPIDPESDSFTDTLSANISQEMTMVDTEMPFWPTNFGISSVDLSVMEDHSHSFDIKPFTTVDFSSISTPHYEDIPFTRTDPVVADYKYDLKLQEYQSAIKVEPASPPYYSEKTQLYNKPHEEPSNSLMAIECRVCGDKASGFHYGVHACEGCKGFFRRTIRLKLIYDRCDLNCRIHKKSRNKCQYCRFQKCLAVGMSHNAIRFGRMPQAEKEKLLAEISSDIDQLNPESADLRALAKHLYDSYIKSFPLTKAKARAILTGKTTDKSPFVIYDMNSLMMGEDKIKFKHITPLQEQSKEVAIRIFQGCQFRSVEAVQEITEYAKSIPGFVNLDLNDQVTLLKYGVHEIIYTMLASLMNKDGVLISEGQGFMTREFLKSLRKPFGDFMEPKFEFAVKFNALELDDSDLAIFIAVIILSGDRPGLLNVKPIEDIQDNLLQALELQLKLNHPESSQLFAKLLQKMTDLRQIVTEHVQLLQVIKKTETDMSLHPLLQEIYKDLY
Procedure, shortened: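 Following 5 h plating at 37C, PPARg-bla HEK293H cells receive compound or DMSO for 17 h; fluorescence intensity is recorded after LiveBLAzer B/G loading for 1 h at room temperature.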

[4] = qHTS assay to identify small molecule antagonists of the peroxisome proliferator-activated receptor gamma (PPARg) signaling pathway - cell viability counter screen (AID 743194); conditions: PPARg-bla HEK293H viability, CellTiter-Glo luminescence, 17 h, co-treated with 50 nM rosiglitazone; activity change, negative = cytotoxicity: at 62.6 µM (top of the series); further: potency means the concentration at half of the fitted maximal effect; nearly all actives have a fitted effect of over 55% in size
Procedure, shortened: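 Cytotoxicity counter screen in PPARg-bla HEK293H cells, same wells as reporter assay. Compounds plus 50 nM rosiglitazone (final) for 17 h at 37 C, then viability read by CellTiter-Glo luminescence.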

[5] = qHTS assay for small molecule activators of the heat shock response signaling pathway (AID 743210; active means well fitted activation curve with a large enough effect in the signal ratio in the repeat runs, with a control signal flat, not every such curve was filed as active; inconclusive means weak or mixed curves; the % refers to the signal ratio; further: potency means the concentration at half of the fitted maximal effect); conditions: HeLa HSE-bla reporter, beta-lactamase ratio, 5 h; activation: at 62.6 µM (top of the series)
Procedure, shortened: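 HSE-bla HeLa cells (beta-lactamase reporter under heat shock response elements), plated overnight, then exposed to compounds 5 h at 37 C; LiveBLAzer B/G FRET substrate added, 2.5 h at room temperature, fluorescence intensity read.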

[6] = qHTS assay to identify small molecule agonists of the peroxisome proliferator-activated receptor delta (PPARd) signaling pathway - cell viability counter screen (AID 743211); conditions: PPARd-bla HEK293H viability, CellTiter-Glo luminescence, 17 h; activity change, negative = cytotoxicity: at 62.6 µM (top of the series); further: potency means the concentration at half of the fitted maximal effect; nearly all actives have a fitted effect of over 55% in size
Procedure, shortened: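 PPARd-bla HEK293H cells (UAS-beta-lactamase reporter) were treated with compounds for 17 h at 37 C. Viability was then read in the same wells by CellTiter-Glo luminescence after 30 min at room temperature.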

[7] = molecular target: Peroxisome proliferator-activated receptor delta (Homo sapiens) (UniProt Q03181); experiment: qHTS assay to identify small molecule agonists of the peroxisome proliferator-activated receptor delta (PPARd) signaling pathway (AID 743212; calls by dose curve; further: potency means the concentration at half of the fitted maximal effect; on activation: on the % scale 0 is the no-effect control and ±100 the full control effect); conditions: HEK293H PPARd-UAS-bla, beta-lactamase FRET ratio, 17 h; activation: at 62.6 µM (top of the series) unless noted
Sequence of UniProt Q03181 (Q03181 whole entry, looked up): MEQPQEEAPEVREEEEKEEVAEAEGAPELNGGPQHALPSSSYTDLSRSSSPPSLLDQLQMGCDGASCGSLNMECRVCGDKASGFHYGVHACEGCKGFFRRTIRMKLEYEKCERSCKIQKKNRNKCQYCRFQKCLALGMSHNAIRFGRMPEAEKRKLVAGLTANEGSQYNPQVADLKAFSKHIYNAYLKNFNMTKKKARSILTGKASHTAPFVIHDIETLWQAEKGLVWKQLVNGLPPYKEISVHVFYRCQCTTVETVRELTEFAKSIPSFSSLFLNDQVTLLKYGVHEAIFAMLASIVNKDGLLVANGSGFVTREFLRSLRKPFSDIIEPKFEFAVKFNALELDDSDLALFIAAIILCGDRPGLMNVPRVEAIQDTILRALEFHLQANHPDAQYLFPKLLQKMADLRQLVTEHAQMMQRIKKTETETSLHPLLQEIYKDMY
Procedure, shortened: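 GeneBLAzer UAS-bla HEK293H cells carrying a PPARδ construct were exposed to compounds at 37 °C. Beta-lactamase activity was read by FRET fluorescence after 2 h at room temperature with LiveBLAzer B/G substrate.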

[8] = qHTS assay to identify small molecule antagonists of the peroxisome proliferator-activated receptor delta (PPARd) signaling pathway - cell viability counter screen (AID 743213); conditions: PPARd-bla HEK293H viability, CellTiter-Glo luminescence, 17 h; viability change, negative = cytotoxic: at 62 µM (top of the series) unless noted; further: nearly all actives have a fitted effect of over 50% in size; further: potency means the concentration at half of the fitted maximal effect
Procedure, shortened: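 HEK293H PPARd UAS-bla cells, 5 h pre-incubation, compound + L165041 300 nM final, 17 h 37 C; B/G FRET substrate 2 h RT; then CellTiter-Glo 30 min RT, luminescence.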

[9] = molecular target: Peroxisome proliferator-activated receptor delta (Homo sapiens) (UniProt Q03181); experiment: qHTS assay to identify small molecule antagonists of the peroxisome proliferator-activated receptor delta (PPARd) signaling pathway (AID 743215; active means well fitted inhibition curve with a large enough effect in the signal ratio in the repeat runs, not every such curve was filed as active; inconclusive means weak or mixed curves, or effect the other way; inactive means no such curve, though single readings can be large or run the other way; the % refers to the signal ratio;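 further: cells stimulated with agonist L165041 at 300 nM final during compound exposure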; further: potency means the concentration at half of the fitted maximal effect; on ratio activity, negative = inhibition: on the % scale 0 is the no-effect control and ±100 the full control effect); conditions: HEK293H PPARd-UAS-bla, beta-lactamase FRET ratio, antagonist, 17 h; ratio activity, negative = inhibition: at 62 µM (top of the series) unless noted
Procedure, shortened: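 With L165041 present at 300 nM final, compounds were incubated 17 h at 37 C on PPARd UAS-bla HEK293H cells. A FRET-based beta-lactamase substrate was then applied for 2 h at room temperature and fluorescence intensity recorded.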

[10] = molecular target: Bile acid receptor (Homo sapiens) (UniProt Q96RI1); experiment: qHTS assay to identify small molecule antagonists of the farnesoid-X-receptor (FXR) signaling pathway (AID 743217; active means well fitted inhibition curve with a large enough effect in the signal ratio in the repeat runs, not every such curve was filed as active; inconclusive means weak or mixed curves, or effect the other way; inactive means no such curve, though single readings can be large or run the other way; the % refers to the signal ratio; further: potency means the concentration at half of the fitted maximal effect); conditions: HEK293T FXR-UAS-bla, beta-lactamase ratio, CDCA-stimulated, 16 h; activity change, negative = inhibition: at 62.6 µM (top of the series) unless noted
Sequence of UniProt Q96RI1 (Q96RI1 whole entry, looked up): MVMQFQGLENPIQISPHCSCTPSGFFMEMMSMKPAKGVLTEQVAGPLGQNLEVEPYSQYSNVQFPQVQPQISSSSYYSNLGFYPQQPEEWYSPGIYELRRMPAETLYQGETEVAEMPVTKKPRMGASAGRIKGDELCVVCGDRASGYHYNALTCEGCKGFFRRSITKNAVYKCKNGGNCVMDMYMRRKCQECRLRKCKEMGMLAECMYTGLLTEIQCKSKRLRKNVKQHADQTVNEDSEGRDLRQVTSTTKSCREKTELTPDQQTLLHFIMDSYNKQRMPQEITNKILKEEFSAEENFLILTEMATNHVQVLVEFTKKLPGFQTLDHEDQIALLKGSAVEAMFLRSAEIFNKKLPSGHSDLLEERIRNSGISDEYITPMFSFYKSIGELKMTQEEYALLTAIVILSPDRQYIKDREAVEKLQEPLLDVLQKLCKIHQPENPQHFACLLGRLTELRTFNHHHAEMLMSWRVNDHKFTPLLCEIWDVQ
Procedure, shortened: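 In this cell-based antagonist screen, inhibition of CDCA-driven (50 uM final) UAS-beta-lactamase expression in HEK 293T cells was measured by FRET fluorescence following 16 h compound exposure at 37 °C.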

[11] = qHTS assay to identify small molecule agonists of the farnesoid-X-receptor (FXR) signaling pathway - cell viability counter screen (AID 743218); conditions: FXR-bla HEK293T viability, CellTiter-Glo luminescence, 16 h; viability change, negative = cytotoxic: at 62.6 µM (top of the series) unless noted; further: potency means the concentration at half of the fitted maximal effect; nearly all actives have a fitted effect of over 45% in size
Procedure, shortened: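 After 16 h at 37 C with test compounds, FXR-bla HEK 293T cells were given LiveBLAzer B/G substrate for 2 h at RT and then CellTiter-Glo; luminescence was taken after 30 min.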

[12] = molecular target: Bile acid receptor (Homo sapiens) (UniProt Q96RI1); experiment: qHTS assay to identify small molecule agonists of the farnesoid-X-receptor (FXR) signaling pathway (AID 743220; active means well fitted activation curve with a large enough effect in the signal ratio in the repeat runs, not every such curve was filed as active; inconclusive means weak or mixed curves, or effect the other way; the % refers to the signal ratio; further: potency means the concentration at half of the fitted maximal effect); conditions: HEK293T FXR-UAS-bla, beta-lactamase FRET ratio, 16 h; activation: at 62.6 µM (top of the series) unless noted
Procedure, shortened: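 Beta-lactamase reporter under UAS control in GeneBLAzer FXR HEK 293T cells (5000/well) measured with LiveBLAzer FRET substrate after 2 h at room temperature. Compound exposure lasted 16 h at 37C.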

[13] = molecular target: Vitamin D3 receptor (Homo sapiens) (UniProt P11473); experiment: qHTS assay to identify small molecule agonists of the vitamin D receptor (VDR) signaling pathway (AID 743222; calls by dose curve; further: potency means the concentration at half of the fitted maximal effect); conditions: HEK293T VDR-UAS-bla, beta-lactamase FRET ratio, 16 h; activation: at 63.5 µM (top of the series) unless noted
Sequence of UniProt P11473 (P11473 whole entry, looked up): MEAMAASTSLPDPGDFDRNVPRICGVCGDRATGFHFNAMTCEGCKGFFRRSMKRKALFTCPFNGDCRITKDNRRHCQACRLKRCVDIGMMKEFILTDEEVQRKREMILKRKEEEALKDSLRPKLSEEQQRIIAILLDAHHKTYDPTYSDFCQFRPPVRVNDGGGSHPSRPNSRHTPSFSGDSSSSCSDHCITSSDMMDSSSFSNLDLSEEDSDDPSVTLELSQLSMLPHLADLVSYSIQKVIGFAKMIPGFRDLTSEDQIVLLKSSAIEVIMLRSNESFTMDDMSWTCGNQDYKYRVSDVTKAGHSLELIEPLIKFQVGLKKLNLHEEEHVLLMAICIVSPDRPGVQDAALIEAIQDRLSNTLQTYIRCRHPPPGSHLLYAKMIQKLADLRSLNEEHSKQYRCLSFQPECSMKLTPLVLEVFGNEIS
Procedure, shortened: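 VDR-bla cells were seeded, left 4 h, treated with compounds in DMSO for 16 h, incubated 2 h at RT with B/G FRET substrate, and read for fluorescence.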

[14] = qHTS assay for small molecule agonists of the antioxidant response element (ARE) signaling pathway (AID 743202; active means well fitted activation curve with a large enough effect in the signal ratio in the repeat runs, not every such curve was filed as active; inconclusive means weak or mixed curves, or effect the other way; inactive means no such curve, though single readings can be large or run the other way; the % refers to the signal ratio; further: potency means the concentration at half of the fitted maximal effect); conditions: HepG2 ARE-bla reporter, beta-lactamase FRET, 16 h; activation: at 73.3 µM (top of the series) unless noted
Procedure, shortened: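 ARE-bla HepG2 cells (beta-lactamase reporter under the antioxidant response element), plated 5 hours, then exposed to compounds 16 hours at 37 C. LiveBLAzer B/G FRET substrate added for 2 hours at room temperature; fluorescence intensity read.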

[15] = qHTS assay for small molecule activators of the heat shock response signaling pathway - cell viability counter screen (AID 743209); conditions: HSE-bla HeLa viability, CellTiter-Glo luminescence, 5 h; activity change, negative = cytotoxicity: at 62.6 µM (top of the series); further: potency means the concentration at half of the fitted maximal effect; nearly all actives have a fitted effect of over 50% in size
Procedure, shortened: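 Counter screen for cytotoxicity in HeLa HSE-bla reporter cells. Treatment was 5 h at 37 C; viability was detected by luminescent ATP assay (CellTiter-Glo) in the same wells as the beta-lactamase read.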

[16] = molecular target: Peroxisome proliferator-activated receptor gamma (Homo sapiens) (UniProt P37231); experiment: qHTS assay to identify small molecule antagonists of the peroxisome proliferator-activated receptor gamma (PPARg) signaling pathway (AID 743191; calls by dose curve; further: potency means the concentration at half of the fitted maximal effect; nearly all actives have a fitted effect of over 30% in size); conditions: HEK293H PPARg-UAS-bla, beta-lactamase ratio, antagonist, 17 h; ratio activity, negative = inhibition: at 62.6 µM (top of the series) unless noted
Procedure, shortened: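 GeneBLAzer PPARg UAS-bla HEK293H cells, 5 h post-plating, exposed to compounds 17 h at 37C. LiveBLAzer B/G FRET substrate added for 1 h at room temperature; beta-lactamase reporter read by fluorescence intensity.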

[17] = molecular target: Vitamin D3 receptor (Homo sapiens) (UniProt P11473); experiment: qHTS assay to identify small molecule antagonists of the vitamin D receptor (VDR) signaling pathway (AID 743223; active means well fitted inhibition curve with a large enough effect in the signal ratio in the repeat runs, not every such curve was filed as active; inconclusive means weak or mixed curves, or effect the other way; inactive means no such curve, though single readings can be large or run the other way; the % refers to the signal ratio; further: on the % scale 0 is the no-effect control and ±100 the full control effect); conditions: VDR-UAS-bla HEK293T, beta-lactamase FRET ratio, 16 h; activity change, negative = inhibition: at 61 µM (top of the series) unless noted
Procedure, shortened: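 VDR-bla cells were plated, incubated 4 h at 37C, then given compound and 1alpha,25-dihydroxyvitamin D3 (3 nM final). After 16 h at 37C, LiveBLAzer B/G FRET substrate was added for 2 h at room temperature and fluorescence read.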
Tags describe the fitted curve by direction and shape or compound fluorescence and quenching.

Which Potency [1] does the source give for `CCCCCCCCCCCCCC[N+](C)(C)C` here?
Its Potency is active: 59.1 µM and inconclusive: 30.6 µM [cytotoxic, partial curve].

What about the Potency [2] of the same compound?
Its Potency is active: 16.8 µM and active: 52.7 µM and active: 54.4 µM.

What about the Potency [3] of the same compound?
The Potency was inconclusive: 21.3 µM [partial curve] and inconclusive: 18.8 µM [inhibitor].

What about the activation [3] of the same compound?
Its activation is inconclusive: -14.6%.

What about the Potency [4] of the same compound?
Its Potency is active: 18.8 µM and active: 24.5 µM and active: 29.8 µM.

And the Potency [5]?
Its Potency is inconclusive: 49.2 µM and inconclusive: 38.9 µM and inconclusive: 35.5 µM.

And the Potency [6]?
Its Potency is active: 37.6 µM and active: 24.5 µM and active: 26.6 µM.

What about the activation [7] of the same compound?
Its activation is inconclusive: -0.294%.

And the Potency [8]?
Its Potency is active: 21.1 µM and active: 6.16 µM and inconclusive: 33.5 µM [cytotoxic, single point].

What about the ratio activity, negative = inhibition [9] of the same compound?
The ratio activity, negative = inhibition was inconclusive: -24%.

What about the Potency [10] of the same compound?
Its Potency is inconclusive: 53.1 µM [cytotoxic, single point] and inconclusive: 61.6 µM [cytotoxic, single point] and inconclusive: 33.5 µM [single point].

What about the Potency [11] of the same compound?
The Potency was active: 47.3 µM and inconclusive: 54.9 µM [cytotoxic, single point] and inconclusive: 33.5 µM [cytotoxic, single point].

And the Potency [12]?
Its Potency is inconclusive: 53.1 µM [cytotoxic, single point] and inconclusive: 61.6 µM [cytotoxic].

What about the activation [13] of the same compound?
The activation was inconclusive: -35.8%.

Which results are given for `O=c1cccccc1O`?
Potency [1]: inconclusive: 55.5 µM [cytotoxic, partial curve]; Potency [2]: inactive; Potency [14]: inconclusive: 78.4 µM [rising, single point]; Potency [15]: inconclusive: 56 µM [cytotoxic, single point]; Potency [5]: inconclusive: 44.5 µM; Potency [6]: inconclusive: 62.9 µM [cytotoxic, partial curve, poor fit]; Potency [8]: inconclusive: 62.9 µM [cytotoxic, single point]; Potency [9]: inconclusive: 62.9 µM; Potency [13]: inconclusive: 62.9 µM [single point]

For `Cc1oc(-c2ccccc2)nc1CCOc1cccc2c1ccn2CCC(=O)O`, which Potency [1] is on record?
The Potency was active: 27.3 µM.

What about the Potency [2] of the same compound?
Its Potency is inconclusive: 61.1 µM [falling, single point].

What about the Potency [3] of the same compound?
The Potency was active: 17.4 nM.

And the Potency [16]?
The Potency was inconclusive: 3.47 µM [rising, full curve, poor fit].

What about the Potency [7] of the same compound?
Its Potency is active: 8.71 µM.

And the Potency [8]?
The Potency was “inactive”.

What about the Potency [11] of the same compound?
Its Potency is inconclusive: 21.9 µM [rising, partial curve, poor fit].

And the activity change, negative = inhibition [17]?
Its activity change, negative = inhibition is inconclusive: 20.4%.
